The values below come from the supplement of paper PMC12297408.

Structures can show the parent of a compound that is named as a salt. Screen size: about 1,300 compounds; about 40 (3%) showed activity. The list shows a part of the results.

The test system of this assay is Plasmodium falciparum NF54/iGP1_RE9H ulg8 stage V gametocytes. Nature of the assay: gametocyte viability (luciferase signal relative to DMSO control) (% of DMSO control); higher = less gametocytocidal activity, active = 50 or less. As to conditions: exposure time: 72 h. A digest of the protocol:
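In 96-well plates holding nanolitre spots of compound (10 mM DMSO stocks), NF54/iGP1_RE9Hulg8 stage V gametocytes from day 12 were added at ~2.5% gametocytemia and 3% hematocrit in medium with 0.5% Albumax II, giving single wells at 10 µM or 1 µM. Incubation lasted 72 h at 37 °C. Each 90 µl sample then received 10 µl D-luciferin (30 mg/ml) before luminescence reading on an IVIS Lumina II, and viability was normalized to the mean of DMSO vehicle wells on the same plate.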

In the case of `CC(=O)O[C@H]1C(=O)[C@@]2(C)[C@H]([C@H](OC(=O)c3ccccc3)[C@]3(O)C[C@H](OC(=O)[C@H](O)[C@@H](NC(=O)c4ccccc4)c4ccccc4)C(C)=C1C3(C)C)[C@]1(OC(C)=O)CO[C@@H]1C[C@@H]2O` [Paclitaxel], the gametocyte viability (concentration: 1 µM) is inactive: 88.3 and the gametocyte viability (concentration: 10 µM) was inactive: 86.7.

Consider `CCCN(CCC)CCc1cccc2c1CC(=O)N2` [Ropinirole HCl], for which the gametocyte viability (concentration: 1 µM) was inactive: 96.2 and the gametocyte viability (concentration: 10 µM) is inactive: 97.1.

Take `NS(=O)(=O)c1cc2c(cc1C(F)(F)F)NCNS2(=O)=O` [Hydroflumethiazide]: the gametocyte viability by setting is: (concentration: 1 µM) inactive: 91.2; (concentration: 10 µM) inactive: 89.9.

As for `CC(C)NC[C@@H](O)COc1ccc(CC(N)=O)cc1` [(R)-(+)-Atenolol], the gametocyte viability was inactive: 85.7 (concentration: 1 µM) and inactive: 91.9 (concentration: 10 µM).

In the case of `CS(=O)(=O)OCCCCOS(C)(=O)=O` [Busulfan], the gametocyte viability by setting is: (concentration: 1 µM) inactive: 87.9; (concentration: 10 µM) inactive: 82.2.

As for `Cc1c(NC(=O)c2cccnc2)c(=O)n(-c2ccccc2)n1C` [Nifenazone], the gametocyte viability by setting is: (concentration: 1 µM) inactive: 85.9; (concentration: 10 µM) inactive: 84.

In the case of `CC[C@@H]1C(=O)OC[C@@H]1Cc1cncn1C` [Pilocarpine nitrate], the gametocyte viability reads like this: (concentration: 1 µM) inactive: 98.2; (concentration: 10 µM) inactive: 98.

Regarding `CCN(CC)CC(=O)Nc1c(C)cccc1C` [Lidoca? hydrochloride], the gametocyte viability by setting is: (concentration: 1 µM) inactive: 83.6; (concentration: 10 µM) inactive: 87.7.

For the compound `CC(=O)OCC(=O)[C@@]12OC(C)(C)O[C@@H]1C[C@H]1[C@@H]3C[C@H](F)C4=CC(=O)C=C[C@]4(C)[C@@]3(F)[C@@H](O)C[C@@]12C` [Fluocinonide], the gametocyte viability is inactive: 80.7 (concentration: 1 µM) and inactive: 84.4 (concentration: 10 µM).

Regarding `c1ccc2c(CC3=NCCN3)cccc2c1` [Naphazoline hydrochloride], the gametocyte viability is, setting by setting: (concentration: 1 µM) inactive: 82.2; (concentration: 10 µM) inactive: 85.6.

Regarding `CO[C@@H]1[C@@H](O[C@@H]2O[C@H](C)[C@@H](O[C@H]3C[C@@](C)(O)[C@@H](OC(=O)CC(C)C)[C@H](C)O3)[C@H](N(C)C)[C@H]2O)[C@@H](CC=O)C[C@@H](C)[C@@H](O)/C=C/C=C/C[C@@H](C)OC(=O)C[C@H]1OC(C)=O` [Josamycin], the gametocyte viability is inactive: 80.1 (concentration: 1 µM) and inactive: 78.9 (concentration: 10 µM).

As to `c1coc(CNc2ncnc3nc[nH]c23)c1` [6-Furfurylaminopurine], the gametocyte viability by setting is: (concentration: 1 µM) inactive: 86.5; (concentration: 10 µM) inactive: 75.6.

Consider `CC(=O)CC(c1ccccc1)c1c(O)c2ccccc2oc1=O` (stereo not drawn) [Warfarin], for which the gametocyte viability by setting is: (concentration: 1 µM) inactive: 95.9; (concentration: 10 µM) inactive: 94.7.

In the case of `COc1cccc2c1C(=O)c1c(O)c3c(c(O)c1C2=O)C[C@@](O)(C(C)=O)C[C@@H]3O[C@H]1C[C@H](N)[C@H](O)[C@H](C)O1` [Daunorubicin hydrochloride], the gametocyte viability was inactive: 69.8 (concentration: 1 µM) and active: 7.37 (concentration: 10 µM).

In the case of `C=CC1=C(C(=O)O)N2C(=O)[C@@H](NC(=O)/C(=N\O)c3csc(N)n3)[C@H]2SC1` [Cefdinir], the gametocyte viability reads like this: (concentration: 1 µM) inactive: 80.8; (concentration: 10 µM) inactive: 83.8.

Take `CC(=O)NS(=O)(=O)c1ccc(N)cc1` [Sulfacetamide sodic hydrate]: the gametocyte viability is, setting by setting: (concentration: 1 µM) inactive: 85.5; (concentration: 10 µM) inactive: 90.3.

In the case of `Cc1cn([C@H]2C=C[C@@H](CO)O2)c(=O)[nH]c1=O` [Stavudine], the gametocyte viability is inactive: 89.9 (concentration: 1 µM) and inactive: 90 (concentration: 10 µM).

As for `CCN(CC)CCNC(C(=O)OCCC(C)C)c1ccccc1` (stereo not drawn) [Camylofine chlorhydrate], the gametocyte viability (concentration: 1 µM) was inactive: 79.9 and the gametocyte viability (concentration: 10 µM) is inactive: 85.5.

In the case of `OCCN(CCO)c1nc(N2CCCCC2)c2nc(N(CCO)CCO)nc(N3CCCCC3)c2n1` [Dipyridamole], the gametocyte viability (concentration: 1 µM) is inactive: 64.1 and the gametocyte viability (concentration: 10 µM) is active: 41.1.

As for `CN(c1nccc(=O)[nH]1)C1CCN(c2nc3ccccc3n2Cc2ccc(F)cc2)CC1` [Mizolastine], the gametocyte viability is inactive: 94.4 (concentration: 1 µM) and inactive: 73.8 (concentration: 10 µM).

Consider `O=C(O)c1ccccc1C(=O)Nc1ccc(S(=O)(=O)Nc2nccs2)cc1` [Phthalylsulfathiazole], for which the gametocyte viability (concentration: 1 µM) was inactive: 82.3 and the gametocyte viability (concentration: 10 µM) was inactive: 85.4.

For the compound `CN1CCN(C(c2ccccc2)c2ccccc2)CC1` [Cyclizine hydrochloride], the gametocyte viability (concentration: 1 µM) was inactive: 86.8 and the gametocyte viability (concentration: 10 µM) is inactive: 85.3.

In the case of `C#C[C@]1(O)CC[C@H]2[C@@H]3CCC4=CCCC[C@@H]4[C@H]3CC[C@@]21C` [Lynestrenol], the gametocyte viability by setting is: (concentration: 1 µM) inactive: 86; (concentration: 10 µM) inactive: 89.2.

For the compound `C[C@H](CCC(=O)O)[C@H]1CC[C@H]2[C@@H]3[C@@H](O)C[C@@H]4C[C@H](O)CC[C@]4(C)[C@H]3CC[C@]12C` [Urosiol], the gametocyte viability was inactive: 98.8 (concentration: 1 µM) and inactive: 99.5 (concentration: 10 µM).

Consider `O=C(CCCN1CCN(c2ccccn2)CC1)c1ccc(F)cc1` [Azaperone], for which the gametocyte viability runs as follows: (concentration: 1 µM) inactive: 88.3; (concentration: 10 µM) inactive: 91.4.

For `NC[C@@H]1O[C@@H](O[C@H]2[C@H](O)[C@@H](O[C@H]3O[C@H](CO)[C@@H](O)[C@H](N)[C@H]3O)[C@H](N)C[C@@H]2N)[C@@H](O)[C@H](O)[C@H]1O` [Kanamycin A sulfate], the gametocyte viability runs as follows: (concentration: 1 µM) inactive: 93.9; (concentration: 10 µM) inactive: 94.8.

`CC1CC(OC(=O)c2ccccc2O)CC(C)(C)C1` (stereo not drawn) [Homosalate]: the gametocyte viability was inactive: 88.1 (concentration: 1 µM) and inactive: 84 (concentration: 10 µM).

Consider `COC(=O)C1=C(C#N)NC(C)=C(C(=O)OC(C)C)C1c1cccc([N+](=O)[O-])c1` (stereo not drawn) [Nilvadipine], for which the gametocyte viability (concentration: 1 µM) is inactive: 83.1 and the gametocyte viability (concentration: 10 µM) was inactive: 82.2.

For `N[C@@H](Cc1cc(I)c(Oc2ccc(O)c(I)c2)c(I)c1)C(=O)O` [Liothyronine], the gametocyte viability by setting is: (concentration: 1 µM) inactive: 85.9; (concentration: 10 µM) inactive: 84.1.

Consider `Nc1c2ccccc2nc2ccccc12` [Aminacrine], for which the gametocyte viability is inactive: 85.8 (concentration: 1 µM) and inactive: 81.4 (concentration: 10 µM).

As for `CN1CCC(=C2c3ccccc3Sc3ccccc32)CC1` [Pimethixene maleate], the gametocyte viability is inactive: 90.9 (concentration: 1 µM) and inactive: 88.8 (concentration: 10 µM).

In the case of `CC1(C)O[C@@H]2C[C@H]3[C@@H]4CCC5=CC(=O)C=C[C@]5(C)[C@H]4[C@@H](O)C[C@]3(C)[C@]2(C(=O)CO)O1` [Desonide], the gametocyte viability (concentration: 1 µM) was inactive: 80 and the gametocyte viability (concentration: 10 µM) was inactive: 75.7.

Take `O=C(CCCCCCC(=O)Nc1ccccc1)NO` [Vorinostat]: the gametocyte viability is inactive: 116 (concentration: 1 µM) and inactive: 73.5 (concentration: 10 µM).

For `CC[C@H]1OC(=O)C[C@@H](O)[C@H](C)[C@@H](O[C@@H]2O[C@H](C)[C@@H](O[C@H]3C[C@@](C)(O)[C@@H](O)[C@H](C)O3)[C@H](N(C)C)[C@H]2O)[C@@H](CC=O)C[C@@H](C)C(=O)/C=C/C(C)=C/[C@@H]1CO[C@@H]1O[C@H](C)[C@@H](O)[C@@H](OC)[C@H]1OC` [Tylosin], the gametocyte viability runs as follows: (concentration: 1 µM) inactive: 93.3; (concentration: 10 µM) inactive: 91.7.
